Assay results taken from PubChem BioAssay AID1347416 (National Center for Advancing Translational Sciences (NCATS), 2020).
Out of some 4,100 compounds screened, about 1,600 (39%) were called active. The inconclusive results got no clear call from the source; some entries with a clear call stand among them for comparison. Calls come from the whole dose curve; as a rule, active = well fitted inhibition curve with a large enough effect; inconclusive = small, poorly fitted or top-dose-only effect; inactive = no such curve, though single readings can be large or run the other way. Potencies beside an inconclusive call are fits to weak or partial responses and may not hold up.
% is set by controls: 0 for no effect and ±100 for the full control effect; potency is the fitted concentration of half-maximal effect; tags give direction and shape of the fitted curve.

Assay: qHTS Validation assay for Inhibitors of Plasmodium falciparum Dd2 growth in vitro; note: nearly all actives have a fitted effect of over 70% in size
Conditions: P. falciparum Dd2 in RBCs, SYBR Green growth, 72 h; activity change, negative = inhibition: at 28.7 µM (top of the series) unless noted
Procedure, shortened: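 P. falciparum Dd2-infected red blood cells (2.5% hematocrit, 0.3% parasitemia) grown 72 h at 37 °C under 5% O2 with compounds in a titration, 29 uM to 0.5 nM final. Growth read as SYBR Green-1 fluorescence after ~16 h lysis; artesunate 300 nM as positive control.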
For `CCOC(=O)[C@H]1[C@H]2COc3cc(OC)ccc3[C@@H]2N2C(=O)c3cc(OC)ccc3NC(=O)[C@@]12C`, the Potency was inconclusive: 15 µM [inhibitor, partial curve, poor fit].
In the case of `CN1CCCCCCN(Cc2ccccc2)[C@H]2CCC[C@H]2C1=O`, the Potency is reported as inconclusive: 13.3 µM [inhibitor, single point].
With `COc1ccc(C(=O)N2CCCC(n3cc(-c4nc(C(C)C)no4)nn3)C2)cn1` (stereo not given) the “activity change, negative = inhibition” value was inactive: 0.265%.
For `c1ccc(-c2noc(-c3ccn4c(CN5CCN(c6ccccn6)CC5)nnc4c3)n2)cc1`, the “activity change, negative = inhibition” value was inactive: -6.11%.
In the case of `CC(=O)N1CCN(c2cc(-c3noc([C@@H]4CCCN4Cc4ccc(C(F)(F)F)cc4)n3)ccn2)CC1`, the Potency is reported as inconclusive: 9.44 µM [inhibitor, partial curve, poor fit].
With `COc1cnc(-c2ccccn2)nc1Sc1ccccc1` the Potency was inconclusive: 7.5 µM [inhibitor, single point].
With `Cc1ccc(O)c([C@H](CCN(C(C)C)C(C)C)c2ccccc2)c1` the Potency was active: 4.22 µM.
For `CNCC(=O)N1CCC2(CC1)CN(CCOc1ccccc1)C(=O)O2`, the “activity change, negative = inhibition” value was inactive: 40.8%.
With `Cc1nc(-c2c3n(c(=O)n(Cc4ccc(OC(F)(F)F)cc4)c2=O)CCCCC3)no1` the “activity change, negative = inhibition” value was inactive: -10.2%.
In the case of `Cc1cccc(NC2=C(NC(=O)c3ccccc3)C(=O)c3ccccc3C2=O)c1`, the Potency is reported as active: 0.944 µM.
With `CCOc1ccc(NS(=O)(=O)c2cc(OCC(N)=O)c(C)cc2Cl)cc1` the Potency was inconclusive: 21.1 µM [inhibitor, single point].
In the case of `CC(C)(C)c1ccc(C(=O)N2CCN(Cc3cc(=O)n4nc(-c5ccccc5F)sc4n3)CC2)cc1`, the “activity change, negative = inhibition” value is reported as inactive: 19%.
For `Cc1ccccc1NCc1nc2c(n1Cc1ccccc1)C(=O)N(CCOc1ccccc1)CCN2`, the Potency was inconclusive: 21.1 µM [inhibitor, single point].
For `CNC(=O)[C@@H]1CN(C(=O)c2cc(OC)cc(OC)c2)C[C@H]1COC`, the “activity change, negative = inhibition” value was inactive: 15.4%.
In the case of `O=C1NCc2ccccc2CC12CCN(Cc1ccccc1F)C2` (stereo not given), the Potency is reported as inconclusive: 26.3 µM [inhibitor, single point].
With `COc1ccc(OC)c(NC(=O)c2ccc3c(c2)N(S(=O)(=O)c2ccccc2)CC3)c1` the “activity change, negative = inhibition” value was inactive: -26.8%.
With `COc1ccc(-c2cc(C[C@@H]3CC[C@H](O)[C@@H](CNCc4cccc(OC)c4)O3)no2)cc1` the Potency was inconclusive: 2.66 µM [inhibitor, full curve, poor fit].
For `N=c1ccn(Cc2ccc(Cl)cc2)cc1`, the Potency was active: 8.41 µM.
With `CC1=C[C@@H](CNCCN(C)C)[C@H](C(C)C)C[C@H]1Cc1nnc(C(C)(C)C)o1` the Potency was active: 15.3 µM.
With `CCOc1ccc(NC(=O)c2cc3ccccc3cc2O)cc1` the Potency was active: 5.31 µM.
For `Cc1ccc(Cn2c(CNC(=O)c3ccc(Cl)c([N+](=O)[O-])c3)nc3cccnc32)cc1`, the Potency was inconclusive: 8.41 µM [inhibitor, partial curve, poor fit].
In the case of `S=C1SCN(Cc2cccnc2)CN1Cc1cccnc1`, the Potency is reported as inconclusive: 21.1 µM [inhibitor, partial curve, poor fit].
In the case of `O=S(=O)(c1ccc2ccccc2c1)N1CCN(C(=S)Nc2ccccc2F)CC1`, the Potency is reported as active: 4.22 µM.
With `O=C(Cc1ccccc1F)N1CC(Oc2ccc(-c3noc(-c4cccnc4)n3)cc2)C1` the Potency was inconclusive: 15 µM [inhibitor, single point].
In the case of `Cc1ccccc1S(=O)(=O)N1CCCC(CCC(=O)NCCN(C)C2CCCCC2)C1` (stereo not given), the Potency is reported as inconclusive: 8.41 µM [inhibitor, partial curve].
In the case of `Cc1nnc2n1CCC(N(C)S(=O)(=O)c1cn(C)cn1)CC2` (stereo not given), the “activity change, negative = inhibition” value is reported as inactive: 10.2%.
For `CN1CCN(c2ccc(NC(=O)c3ccc(-c4cccc([N+](=O)[O-])c4)o3)cc2)CC1`, the Potency was inconclusive: 4.73 µM [inhibitor, full curve].
In the case of `COc1ccccc1NC(=O)Cn1cccc1-c1nc(-c2ccc(F)cc2)no1`, the “activity change, negative = inhibition” value is reported as inactive: -5.56%.
With `COc1ccc2nc([C@H]3CCN(Cc4cccc(OC(F)(F)F)c4)C3)[nH]c2c1` the Potency was inconclusive: 19.3 µM [inhibitor, partial curve, poor fit].
For `COc1ccc(-c2nc(CC3CCN(C(=O)c4n[nH]c(=O)c5ccccc45)C3)no2)cc1` (stereo not given), the Potency was inconclusive: 15 µM [inhibitor, single point].
For `CN(C1CCOCC1)C1CCN(C(=O)c2cccc(Cl)c2)CC1`, the “activity change, negative = inhibition” value was inactive: -5.93%.
For `CCCCSc1nnc2c(n1)OC(C)N(C(C)=O)c1ccccc1-2` (stereo not given), the “activity change, negative = inhibition” value was inactive: 9.17%.
In the case of `O=C1COc2ccc(-c3ccsc3)nc2CN1`, the “activity change, negative = inhibition” value is reported as inactive: 40.8% [at 57.5 µM].
In the case of `O=C1C2=C(Nc3ccccc3SC2c2ccco2)c2ccccc21` (stereo not given), the Potency is reported as active: 4.73 µM.
In the case of `O=C1CC(c2ccccc2)N(C(=O)CNC(=O)c2nccc3ccccc23)CCCCCCN1` (stereo not given), the Potency is reported as inconclusive: 2.66 µM [inhibitor, full curve, poor fit].
With `O=C(C1CCC1)N1CCC(N2CC(OCC3CC3)C23CCCCC3)CC1` (stereo not given) the Potency was inconclusive: 16.8 µM [inhibitor, single point].
In the case of `O=c1cc(-c2ccccc2)c2ccc3c(c2o1)CN(Cc1ccccc1)CO3`, the Potency is reported as active: 2.66 µM.
With `CCN(CC)CCCN(c1ccccc1)C1Cc2ccccc2C1` the Potency was inconclusive: 4.73 µM [inhibitor, full curve, poor fit].
With `CC(=O)NC1CC(c2cc(NCCCOC3CCN(C)CC3)ncn2)C1` (stereo not given) the “activity change, negative = inhibition” value was inactive: 29%.
With `CCOC(=O)c1[nH]c(C)c(CCC(=O)N2CCN(c3cccc(C)c3C)CC2)c1C` the Potency was active: 1.33 µM.
In the case of `CCOC(=O)c1c(CN(C)C)n(-c2ccccc2)c2cc(Br)c(O)cc12`, the Potency is reported as inconclusive: 21.1 µM [inhibitor, single point].
In the case of `CCn1c(C)nc2cc(-c3nc4n(n3)Cc3ccccc3-4)ccc21`, the Potency is reported as inconclusive: 21.1 µM [inhibitor, single point].
For `Cc1ccc(F)cc1NC(=O)CCSc1nc(-c2ccco2)cc(C(F)(F)F)n1`, the Potency was inconclusive: 21.1 µM [inhibitor, single point].
With `CCO[C@@H]1OC(C(=O)N2CCN(Cc3ccc4c(c3)OCO4)CC2)=C[C@H](C2CCCCC2)[C@H]1CCCO` the Potency was inconclusive: 21.1 µM [inhibitor, single point].
In the case of `CN(CC1CCOCC1)S(=O)(=O)c1ccc(F)c(Cl)c1`, the “activity change, negative = inhibition” value is reported as inactive: 28.6%.
